# Laboratory results from PubChem BioAssay AID1346428 (National Center for Advancing Translational Sciences (NCATS), 2018).
# Several values for one entry are separate records, joined by “and”; a condition that tells them apart may be missing. Equal entries are not always repeated. About 1,200 (2.5%) of roughly 48,000 compounds were called active. Inconclusive results (about 2%) are left out.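 The calls were made as follows: active = activation of at least 60% and not above a set upper limit (about 1 call in 100 departs from these limits); inconclusive = activation of 40% to 60%, or above that upper limit; inactive = activation under 40%.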 The list shows a part of the results. Where a structure was tested more than once in an assay, its records may differ in their call.
# Biological target: Probable G-protein coupled receptor 32 (Homo sapiens) (UniProt O75388)
# Experiment: qHTS for Agonists of Human Resolvin D1 Receptor DRV1; also: 0% is about no effect
# Settings: CHO-K1 GPR32 beta-arrestin PathHunter luminescence, 90 min; at 76.9 µM; stronger effect = higher value; zero percent set by DMSO-only wells
# Summary of the method: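 Cells are plated overnight, treated with compounds in DMSO for 90 minutes at 37 °C, and developed with PathHunter detection reagent for 1 hour before luminescence is read; signal reflects beta-arrestin binding to GPR32 in engineered CHO-K1 cells.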
# Chain of UniProt O75388 (O75388 whole entry, looked up): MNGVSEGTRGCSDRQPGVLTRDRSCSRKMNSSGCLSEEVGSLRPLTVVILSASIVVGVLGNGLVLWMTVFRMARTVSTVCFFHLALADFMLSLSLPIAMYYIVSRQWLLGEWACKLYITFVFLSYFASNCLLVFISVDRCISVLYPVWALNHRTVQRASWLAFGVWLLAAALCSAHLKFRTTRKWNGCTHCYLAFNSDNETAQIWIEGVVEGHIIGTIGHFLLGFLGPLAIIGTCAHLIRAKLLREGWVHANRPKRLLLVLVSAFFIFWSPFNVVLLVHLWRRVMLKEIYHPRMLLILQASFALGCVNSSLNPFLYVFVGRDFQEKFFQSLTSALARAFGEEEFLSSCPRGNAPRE
row,SMILES,activation
1,CCCOc1cccc(C(=O)Nc2cc(-c3nc4ccccc4[nH]3)ccc2C)c1,inactive: 21.2%
2,COc1ccc(S(=O)(=O)NCCc2sc(C)nc2C)cc1,inactive: 12.2%
3,COc1cc(OC)c(NC(=O)c2sc3nc4n(c(=O)c3c2C)CCCC4)cc1Cl,inactive: 8.19%
4,CCCCC(=O)N1CC(=O)Nc2ccc(F)cc2C1c1ccc(F)cc1 (centres undefined),inactive: -5.68%
5,O=C(CC1C(=O)OCCN1Cc1ccccc1)Nc1cccc(Cl)c1 (centres undefined),inactive: 23.4%
6,Cc1ccc(CCNC(=O)CN2C(=O)COc3ccc(S(=O)(=O)N4CCCC4)cc32)cc1,inactive: -14.8%
7,Cc1cc(C)cc(NC(=O)c2nnn(Cc3cccc(Br)c3)c2N)c1,inactive: 37.7%
8,COc1ccc(-n2c(-c3ccccc3F)nc3c(cnn3-c3ccc(C)cc3)c2=O)cc1,inactive: -26.1%
9,CCOc1cc(Cn2c(-c3ccc(O)c(OCC)c3)nc3ccccc32)ccc1O,inactive: -23%
10,CCOC(=O)[C@H](CCc1ccccc1)N[C@H]1CCc2ccccc2N(CC(=O)O)C1=O,inactive: 5.98%
11,CC(=O)c1ccc(NC(=O)c2sc(-n3nc(C)c(CCC(C)C)c3C)nc2C)cc1,inactive: -12.5%
12,Cc1ccc(S(=O)Cc2ccc(C(=O)NCc3ccc(OC(C)C)cc3)o2)cc1 (centres undefined),inactive: -17.8%
13,Cc1nc2c3cccnc3nn2c(C)c1CCC(=O)NCc1ccccc1Cl,inactive: -17.8%
14,Cc1ccc2c(Sc3ccccc3)c(C(=O)NCc3ccccc3F)[nH]c2c1,inactive: -4.49%
15,CCOc1ccccc1NC(=O)CSc1nc2ccccc2nc1Cc1ccc(C)cc1,active: 70.5%
16,Cc1oc(-c2ccccc2Cl)nc1CS(=O)CC(=O)N1CCN(c2cccc(C(F)(F)F)c2)CC1 (centres undefined),inactive: -8.54%
17,Cn1nnnc1SCCCNCc1cc(Br)ccc1OCc1ccccc1,inactive: 19.4%
18,COc1cc2c(cc1OC)-c1cc(=Nc3c(C)cc(C)cc3C)n(C)c(=O)n1CC2,inactive: -18.9%
19,Cc1nc2sccn2c(=O)c1S(=O)(=O)Nc1ccc(N2CCN(C)CC2)cc1,inactive: -3.04%
20,COc1ccc(-c2nn3c(=O)cc(CN4CCN(C(=O)Nc5cc(C)ccc5C)CC4)nc3s2)cc1,inactive: -4.73%
21,COc1cc(OC)c(NC(=O)NCCn2nnc3cc(S(=O)(=O)N(C)C)ccc32)cc1Cl,inactive: -7.22%
22,COc1ccc(-c2c(C#N)c(SCC(=O)Nc3ccc(C)c(C)c3)nc(C)c2C(=O)Nc2ccc(Cl)cc2)cc1,inactive: -6.69%
23,Cc1cc(-c2ccc(S(=O)(=O)Nc3cccc(C)c3C)s2)on1,inactive: -6.51%
24,CCOc1ccc(CCNC(=O)C(CC)n2nc(C)c3c(C)n(-c4ccccc4)nc3c2=O)cc1 (centres undefined),inactive: -12.3%
25,CCCCNc1ccc(C(=O)OCCN(CC)CC)cc1,inactive: 2.95%
26,CCCCSCCCNC(=O)C1CCN(Cc2nc(-c3ccc(CC)cc3)oc2C)CC1,inactive: 25.3%
27,Cc1cccc(N2CCN(C(=O)c3sc4nc5n(c(=O)c4c3C)CCC5)CC2C)c1 (centres undefined),inactive: -1.78%

row,SMILES,activation
1,O=C(CSc1nnc(-c2ccccc2Br)n1-c1ccccc1)c1ccc(F)cc1,active: 60.2%
2,Cc1nc2ccn(Cc3cccnc3)c(=O)c2cc1C(=O)NCc1ccccc1,inactive: -14.8%
3,CC(C)(C)C1CCc2nc(NC(=O)c3cccc(Cl)c3)sc2C1 (centres undefined),inactive: -9.92%
4,COC(=O)c1ccc(OCC2c3cc(OC)c(OC)cc3CCN2C(=O)c2ccc(OC)cc2)cc1 (centres undefined),inactive: -0.613%
5,O=c1[nH]c(SCc2ccccc2)nc2c1CCCC2,inactive: -2.32%
6,Cc1ccc(C)c(NC(=O)Cn2cnc3c(oc4ccccc43)c2=O)c1,inactive: -2.21%
7,Cc1cccc(N(CC(=O)NCc2ccccc2)S(C)(=O)=O)c1C,inactive: 2.35%
8,CCc1ccc(C2=CC(c3cccc(C)c3)n3c(nc4ccccc43)N2)cc1 (centres undefined),inactive: -5%
9,CCc1ccc(-c2nc(CN3CCC(C(=O)NCCc4ccc(C)cc4)CC3)c(C)o2)cc1,inactive: -1.79%
10,COc1ccc(CNC(=O)CSCc2nc(-c3ccccc3F)oc2C)cc1,inactive: -17.2%
11,Cc1nnc(N2CCC(C(=O)NCCc3ccccc3)CC2)c2nn(-c3ccccc3)c(C)c12,inactive: -7.99%
12,COc1ccccc1-c1cc(C(=O)N2CCN(c3ccccc3)CC2)no1,inactive: 2.14%
13,Cc1cc(C)c2c(=O)cc(C(=O)Nc3ccc(C)c(Cl)c3)oc2c1,inactive: -2.92%
14,COc1ccc(NC(=O)C(c2ccccc2)N2Cc3ccccc3C2=O)cc1 (centres undefined),inactive: -21.8%
15,CCOC(=O)Cn1c(C2CC(=O)N(c3ccc(C)cc3)C2)nc2ccccc21 (centres undefined),inactive: -19.6%
16,Cc1ccccc1OCCn1cc(C(=O)C2CCCCC2)c2ccccc21,inactive: -0.999%
17,Fc1ccc(C(OCCCc2cnc[nH]2)c2ccc(F)cc2)cc1,inactive: 10.1%
18,CCC(=O)N1c2ccccc2CC1C(=O)NCCc1ccc(SC)cc1 (centres undefined),inactive: -1.98%
19,O=[N+]([O-])c1ccc(C(c2sc3nc(-c4ccco4)nn3c2O)N2CCN(Cc3ccccc3)CC2)cc1 (centres undefined),inactive: -12%
20,Cc1ccc(C)c(N2CCN(C(=O)Cn3cnc4sc(C)c(S(=O)(=O)N5CCN(c6ncccn6)CC5)c4c3=O)CC2)c1,inactive: 3.17%
21,CCNC(=O)N1CCN(CCCC(c2ccc(F)cc2)c2ccc(F)cc2)CC1,active: 112% and inactive: -2.72%
22,O=C(Nc1ccc2c(c1)OCO2)c1cc(-c2cccc(Cl)c2)on1,inactive: -1.56%
23,CCN(CC)S(=O)(=O)c1nnc(NC(=O)COc2ccc(C)cc2)s1,inactive: 13.9%
24,CC(=O)Nc1ccccc1-c1nc2ccccc2n(C(C)C(=O)Nc2cc(Cl)ccc2C)c1=O (centres undefined),inactive: 32%
25,CC(=O)Nc1ccc(NC(=O)CCc2c(C)nc3c(c(C)nn3-c3ccc(C)cc3)c2C)cc1,inactive: -23.1%
26,CCOc1ccc(NC(=O)c2ccc(CN3C(=O)C(C)=C(c4ccc(C)cc4)S3(=O)=O)cc2)cc1,inactive: -21.9%
27,Cc1ccc(C)c(NC(=O)CSc2nnc(CNC(=O)c3ccccc3)n2-c2ccccc2)c1,inactive: 8.13%
